Test results published in PubChem BioAssay AID1721 (National Center for Advancing Translational Sciences (NCATS), 2009).
Out of some 290,000 compounds screened, about 1,100 (0.38%) were called active. This list was built around the results that the source calls inconclusive (neither active nor inactive); the mix of calls is not that of the screen. The call rests on the fitted dose curve; in most records, active means well fitted inhibition curve with a large enough effect; inconclusive means small, poorly fitted or top-dose-only effect, or another doubt; inactive means no such curve, though single readings can be large or run the other way. A potency beside an inconclusive call is a rough fit, not a confirmed value.

target: Pyruvate kinase (Leishmania mexicana) (UniProt Q27686); assay: qHTS Assay for Inhibitors of Leishmania Mexicana Pyruvate Kinase (LmPK); settings: purified LmPK, Kinase-Glo ATP luminescence, 1 h; series mostly up to 57.5 µM
Chain of UniProt Q27686 (Q27686 whole entry, looked up): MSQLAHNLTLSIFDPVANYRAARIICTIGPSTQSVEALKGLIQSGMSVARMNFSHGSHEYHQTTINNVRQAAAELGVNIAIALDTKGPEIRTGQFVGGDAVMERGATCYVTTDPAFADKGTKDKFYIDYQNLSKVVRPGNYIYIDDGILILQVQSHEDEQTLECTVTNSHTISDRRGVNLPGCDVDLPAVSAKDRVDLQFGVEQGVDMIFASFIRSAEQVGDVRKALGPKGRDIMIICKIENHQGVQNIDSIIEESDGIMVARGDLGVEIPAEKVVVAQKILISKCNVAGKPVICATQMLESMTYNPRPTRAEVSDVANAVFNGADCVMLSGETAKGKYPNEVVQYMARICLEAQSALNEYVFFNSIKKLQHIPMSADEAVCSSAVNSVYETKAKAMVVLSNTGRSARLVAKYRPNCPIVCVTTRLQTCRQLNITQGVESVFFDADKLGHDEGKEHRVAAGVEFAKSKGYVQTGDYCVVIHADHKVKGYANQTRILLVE
Procedure, shortened: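 Purified LmPK (0.1 nM) converted ADP (0.1 mM) to ATP with PEP (0.5 mM) in imidazole buffer pH 7.2 with KCl and MgCl2, 1 h at room temperature. ATP was read by Kinase-Glo luminescence; data normalized to uninhibited and no-enzyme controls.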
Potency means the concentration at half of the fitted maximal effect; tags describe the fitted curve by direction and shape.

SMILES | Potency
CN(C)c1nc(N)nc(N(c2ccccc2)c2ccccc2)n1 | inactive
Nc1nc2ccccc2n1C(=O)c1ccco1 | inconclusive: 14.1 µM [falling, partial curve]
S=c1[nH]nc(-c2ccc(Cl)cc2)n1-c1ccc2c(c1)OCCO2 | inconclusive: 3.98 µM [falling, full curve]
Clc1cccc(-c2nc(-c3ccccn3)no2)c1 | active: 10 µM
O=C(Nc1ccc(Cl)cn1)c1ccc([N+](=O)[O-])o1 | inconclusive: 17.8 µM [falling, partial curve]
O=C(CNc1ccccc1OC(F)F)N1CCc2ccccc21 | inactive
COC(=O)c1sc(S(=O)(=O)N2CCCCC2)c(C(=O)OC)c1C | inactive
O=C(Nc1ccc(Cl)cc1)C1=Cc2ccccc2OC1 | inactive
COc1ccc(/C=N/N=C(\N)c2nonc2N)cc1 | inconclusive: 17.8 µM [falling, partial curve]
Nc1c(-c2ccccc2)cnn1-c1cccc(Cl)c1 | inconclusive: 35.5 µM [falling, single point]
COc1ccc(Nc2cnn(-c3nc4ccccc4s3)c(=O)c2Cl)cc1 | inconclusive: 12.6 µM [falling, partial curve]
O=C(Nc1ccc2c(c1)nc1n2CCSC1)c1ccccc1 | active: 15.8 µM
CCOc1ccc(-c2cn3ccccc3n2)cc1[N+](=O)[O-] | inactive
COc1ccccc1N1CCN(c2ccc(-c3ccccc3)nn2)CC1 | inconclusive: 7.94 µM [falling, partial curve]
Cc1nc2cc(F)ccc2n1C1CCN(C(=O)c2c(F)cccc2F)CC1 | inactive
CN(C(=O)COC(=O)c1cccnc1Nc1ccccc1F)C1CCS(=O)(=O)C1 (configuration not stated) | inconclusive: 17.8 µM [falling, partial curve]
CCCCn1c(-c2csc(CCC)c2)n[nH]c1=S | active: 22.4 µM
CN=Cc1nc(-c2ccccc2)oc1O | inconclusive: 20 µM [falling, single point]
Oc1ccc(/C=N/NC(=S)N/N=C/c2ccc(O)cc2)cc1 | inconclusive: 12.6 µM [falling, partial curve]
CCOC(=O)c1csc(-c2sccc2Br)n1 | active: 15.8 µM
COc1ccc(-c2nc3ncccn3c2Br)cc1 | inconclusive: 28.2 µM [falling, single point]

SMILES | Potency
CCCCn1c(-c2csc(CC)c2)n[nH]c1=S | inconclusive: 14.1 µM [falling, partial curve]
COc1cccc(/C=N/Nc2ccc(C(=O)O)cc2)c1O | inconclusive: 14.1 µM [falling, partial curve]
COc1cccc(-c2cn3nc(C)c(C)nc3n2)c1 | active: 12.6 µM
Cn1ccnc1SCC(=O)c1ccc(Br)cc1 | inconclusive: 25.1 µM [falling, single point]
CC(C)(C)CN1CCN(Cc2nc(-c3ccc(F)cc3)cs2)CC1CCO (configuration not stated) | inactive
Nc1cccc(-c2nc3ccccc3[nH]2)c1 | inconclusive: 25.1 µM [falling, single point]
N/C(=N\OC(=O)CCCc1ccccc1)c1ccccn1 | inconclusive: 31.6 µM [falling, single point]
Cc1cccc(/C(N)=N/OC(=O)N2CCOCC2)c1 | inconclusive: 15.8 µM [falling, partial curve]
Cc1ccc(-n2nnnc2SCC(=O)NC(=O)Nc2ccc3c(c2)OCCO3)cc1 | inactive
COc1ccc(C(NC(=O)/C=C/c2ccco2)c2ccc(OC)cc2)cc1 | inactive
O=C(Nc1nc2ccc(S(=O)(=O)N3CCCC3)cc2s1)c1ccccn1 | inconclusive: 35.5 µM [falling, single point]
CCN1CCc2c(sc(NC(=O)C3CCCCC3)c2C(=O)OC)C1 | inactive
COc1cc(/C=C(\C#N)C(=O)NC(C)C)ccc1OCc1ccc(C(=O)O)cc1 | inactive
CSc1nc(=S)c2[nH]c(=S)[nH]c2[nH]1 | inconclusive: 35.5 µM [falling, single point]
Cc1cc(C(=O)Nc2ccc(N3CCCCC3)cc2)no1 | inconclusive: 15.8 µM [falling, partial curve]
Cc1cc(-c2n[nH]c(=S)n2CC(C)C)cs1 | inconclusive: 14.1 µM [falling, partial curve]
Cc1nc2ccc(NC(=O)Cc3ccc(Br)cc3)cc2s1 | inactive
C/C(=N/NC(=O)c1cc(C(C)C)[nH]n1)c1cccs1 | inconclusive: 22.4 µM [falling, partial curve]
O=C(CCl)Nc1cn(-c2ccccc2)nc1-c1ccc(F)cc1 | inactive
Cc1ccc2nc(-c3cccc(N)c3)[nH]c2c1 | active: 15.8 µM
CCOC(=O)C1=C(C)N(c2ccc(OC)cc2)C(=O)/C1=C\c1ccc(O)c(OCC)c1 | active: 31.6 µM

SMILES | Potency
Fc1ccc(-n2nnc(-c3cnc4ccccc4c3)n2)cc1 | inconclusive: 12.6 µM [falling, partial curve]
Cc1ccc(C(=O)Nc2sc3c(c2C(=O)O)CCCCC3)o1 | inconclusive: 20 µM [falling, partial curve]
Cc1ccc(-c2nc3ccccn3c2C=O)cc1 | inconclusive: 17.8 µM [falling, single point]
CCCCC(CC(C)O)c1n[nH]c(=S)n1-c1ccccc1 (configuration not stated) | inconclusive: 28.2 µM [falling, single point]
CC(C)NC(=O)COc1ccccc1C#N | inactive
O=C1CSC(c2cn(-c3ccccc3)nc2-c2cc3ccccc3o2)N1Cc1ccccc1 (configuration not stated) | inactive
CCn1c(-c2ccc3[nH]c(C)c(C)c3c2)n[nH]c1=S | active: 28.2 µM
Cc1cc(C(=O)Nc2ccccn2)cs1 | active: 14.1 µM
Cc1ccc(-c2nnc(CSc3nnc(C)s3)o2)cc1 | inactive
COc1ccc2nc(NC(=O)c3cnccn3)sc2c1 | inconclusive: 39.8 µM [falling, single point]
CC(C)(C)C1=CC(=O)C(=O)C(C(C)(C)C)=C1 | active: 14.1 µM
c1cncc(-c2nc3cc4ccccc4cc3[nH]2)c1 | inconclusive: 22.4 µM [falling, partial curve]
CCn1c(=O)cc(SCC(=O)N(C)Cc2ccccc2)c2ccccc21 | inactive
Cc1ccc(S(=O)(=O)N(CC(=O)NC2CCCC2)c2cccc(C)c2)cc1 | inactive
COc1cc(OC)c(C(=O)OCC(=O)NC2CCCC2)cc1OC | inactive
CN1CCc2cccc3c2C1Cc1ccc(O)c(O)c1-3 (configuration not stated) | active: 3.16 µM
Cc1cc(-c2nnc(CCC(=O)N(CC3CC3)CC3CCCO3)o2)no1 (configuration not stated) | inactive
COc1ccc(-c2cc(C(=O)Nc3ccccc3)on2)cc1 | inconclusive: 14.1 µM [falling, partial curve]
Cc1cc(C(=O)Nc2ccc3c(c2)OCO3)cs1 | inconclusive: 28.2 µM [falling, single point]
O=C(NC1CC1)c1ccc(-c2nc3ccccc3s2)s1 | inconclusive: 12.6 µM [falling, partial curve]
CC(=O)Nc1ccc(C2=NNC(=Nc3ccc(S(=O)(=O)N4CCOCC4)cc3)SC2)cc1 | inconclusive: 17.8 µM [falling, single point]

SMILES | Potency
Cc1ccc(-c2nc(C)c(C(=O)O)s2)cc1 | inconclusive: 28.2 µM [falling, single point]
Cc1ccc(NC(=O)c2cc(C)n(-c3ccccc3)c2C)cc1 | inconclusive: 31.6 µM [falling, single point]
O=C1c2ccccc2C(=O)C1c1ccccn1 | inconclusive: 14.1 µM [falling, partial curve]
O=[N+]([O-])c1ccc2nc(-c3ccccn3)[nH]c2c1 | inconclusive: 14.1 µM [falling, partial curve]
O=C(NCCNC(=O)c1ccccn1)c1ccc(Cl)cc1 | inactive
Cc1cccc(-c2nnc(-c3ccccc3)o2)c1 | inconclusive: 25.1 µM [falling, single point]
CCC1CN(C(=O)N2CCC(C(=O)NCCc3ccc(OC)cc3OC)CC2)c2ccccc2O1 (configuration not stated) | inactive
O=C(NC1=C(Nc2ccc(Cl)cc2)C(=O)c2ccccc2C1=O)c1ccccc1 | inconclusive: 22.4 µM [falling, partial curve]
Oc1ccc(N2CCN(Cc3c(-c4ccccc4)nc4ccccn34)CC2)cc1 | inconclusive: 28.2 µM [falling, partial curve]
CC(=O)Oc1ccc2c(c1)C(=O)c1ccccc1CO2 | inconclusive: 35.5 µM [falling, single point]
CCN(CC)c1ccc(/C=N/NC(=O)c2ccoc2C)cc1 | active: 14.1 µM
CCOC(=O)Cc1csc(NC(=O)c2ccoc2C)n1 | active: 14.1 µM
CCC1=NNc2cccc3c(OC)ccc1c23 | inconclusive: 39.8 µM [falling, single point]
COc1ccccc1/C=N/NS(=O)(=O)c1ccccc1 | inconclusive: 6.31 µM [falling, single point]
COc1ccc(/C=N/N=C2/NC(=O)C(CC(=O)O)S2)cc1OCc1ccc(Cl)cc1 (configuration not stated) | inconclusive: 28.2 µM [falling, single point]
Cn1cc(Cl)c(-c2nc3ccccc3[nH]2)n1 | inconclusive: 25.1 µM [falling, single point]
CCn1c(C(=O)NC(C)c2ccc3c(c2)OCCO3)cc2sccc21 (configuration not stated) | inactive
COc1ccc2c(Cl)c(C(=O)NCCCn3ccnc3)sc2c1Cl | inactive
O=C(O/N=C1\CCCc2ccccc21)c1cccs1 | inconclusive: 20 µM [falling, single point]
